# Measurements published in the supplement of paper PMC12217912.
# The other results are listed elsewhere or left out. Sequences were assembled here from the parent chain. Values near 0.05 are background.
# B1: TEV protease; numbered along this chain (parent)
# chain: MGESLFKGPRDYNPISSSICHLTNESDGHTTSLYGIGFGPFIITNKHLFRRNNGTLVVQSLHGVFKVKDTTTLQQHLVDGRDMIIIRMPKDFPPFPQKLKFREPQREERICLVTTNFQTKSMSSMVSDTSCTFPSGDGIFWKHWIQTKDGQCGSPLVSTRDGFIVGIHSASNFTNTNNYFTSVPKNFMELLTNQEAQQWVSGWRLNADSVLWGGHKVFMVKPEEPFQPVKEATQL
# Variants of: B1
# Assay: raw area under fraction-flipped curve 0-4 h after induction (AUC4h, not background-subtracted), DNA-recorder readout of cleavage of the substrate (dimensionless); higher = more cleavage of the substrate by the protease variant
# Conditions: temperature: 34 °C; time window: 0-4 h after rhamnose induction
# Experimental: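 In vivo DNA recorder in E. coli TOP10(DE3) ΔrhaA at 34 °C. Each TEVp single-site mutant (parent TEVp 0) is paired with a single-site variant of the 7-mer TEVs (canonical ENLYFQ|S). The substrate sits between flexible linkers in a Bxb1-sfGFP-TEVs-SsrA fusion, so cleavage stabilises Bxb1 and speeds flipping of a recombination array, read by NGS. The value is the raw area under the fraction-flipped curve over 0-4 h after rhamnose induction (AUC4h), with ≥20 reads per time point. It is not background-subtracted; inactive controls average about 0.047.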
# 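Also: Bxb1 expression induced with 0.2% (w/v) L-rhamnose at OD600 near 0.5, cultures sampled hourly, flipped fraction per protease–substrate barcode pair counted by paired-end Illumina sequencing.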
Variant,area with substrate ENLYCQS,area with substrate ENLYEQS,area with substrate ENLYGQS,area with substrate ENLYHQS,area with substrate ENLYKQS,area with substrate ENLYMQS,area with substrate ENLYNQS,area with substrate ENLYPQS,area with substrate ENLYQQS,area with substrate ENLYRQS,area with substrate ENLYSQS,area with substrate ENLYVQS,area with substrate ENLYWQS,area with substrate ENLYDQS,area with substrate ENLYIQS,area with substrate ENLYLQS,area with substrate ENLYTQS,area with substrate ENLYYQS
L48T,0.0631,0.0823,0.0534,0.0604,0.0803,0.074,0.0496,0.0589,0.0491,0.0543,0.0592,0.0561,0.0643,,,,,
I145E,0.0613,0.0564,0.0613,0.0754,,,,0.0632,0.0593,0.0247,,0.0773,,0.0552,,,,
L112M,0.0791,,0.0651,0.0651,0.064,0.0916,0.0955,,0.0658,0.0587,,0.131,,0.0612,0.11,,,
L112V,0.0902,0.0736,,0.0617,,0.0864,0.0745,,0.0682,0.06,0.07,,0.0871,0.0736,0.096,,,
L112G,0.0516,0.0646,0.0794,0.0581,0.0605,0.0561,0.0595,0.0726,0.054,0.0777,0.0619,0.0679,,0.0715,0.0631,0.0542,0.0595,
G80A,0.0974,0.0688,,,0.0646,0.0894,0.0437,0.0805,,0.0545,,,0.0785,0.0604,0.0939,,,0.0828
L235H,,,0.0675,0.0694,0.0565,0.0747,,0.064,0.0502,,,0.0742,,0.0653,0.142,,,0.0612
P222W,0.0589,0.0529,0.0712,0.0615,0.0609,,,0.0681,0.0759,0.0691,0.0548,0.0888,,0.0551,0.0671,0.0348,0.0787,0.0607
T176G,0.0674,0.0627,0.0583,0.0643,,0.0661,0.0645,,0.066,,,0.0682,0.0635,0.0454,0.0758,,0.0683,0.0572
L205V,0.0638,,,,,,0.0666,0.045,0.0706,,,,,,,,,0.0704
M219A,0.0711,0.0741,,0.105,0.0692,0.118,,0.0602,0.0843,0.0434,0.0863,0.0743,,0.0627,0.07,0.0217,0.0424,0.061
T119I,,0.0628,0.0441,0.0471,0.0539,,,0.106,0.0643,0.0505,,0.0667,,0.0548,,0.0589,,0.0645
P184Q,0.104,0.0681,,0.0564,0.0629,0.0676,0.0618,0.0526,0.0639,0.0544,,,0.0617,0.0611,0.0983,,,0.0633
D208T,0.101,0.0626,0.0672,0.0569,0.0591,0.0721,0.0603,0.0648,0.06,0.0884,0.0573,0.0892,0.0652,0.0635,0.0901,0.0651,,0.063
D208H,,0.0601,0.0722,0.0544,0.0539,0.057,0.0693,,0.0651,,,,,0.0644,0.0707,,,
